Measured values from the supplement of paper PMC3334620.
Over roughly 33,000 sequences, “E-score (-0.5 to 0.5)” has its median near -0.056; the highest 2% begin near 0.38. Some of the results follow.

Biological target: Stb4 (UniProt P50104)
Assay: PBM E-score (8-mer binding enrichment) (E-score (-0.5 to 0.5)); higher = stronger / more preferred TF binding; most listed sequences are background and not binding sites
Conditions: protein concentration: 200 nM; construct: GST-DNA-binding domain
How it was run: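 GST-tagged yeast TFs (full-length or DNA-binding domain) were made by PURExpress in vitro transcription/translation and applied at about 100-200 nM to universal all-10-mer Agilent arrays. The arrays were made double-stranded by primer extension, on fresh or once-stripped slides. Bound protein was detected with fluorescent anti-GST, and scans were normalised with masliner. Each ungapped eight-base word, pooled with its reverse complement, received an E-score (modified Wilcoxon-Mann-Whitney statistic) from the Universal PBM Analysis Suite.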

In order of rising “PBM E-score” value:
1. AAATCGAT  -0.337
2. TCAGAGCA  -0.316
3. ACCTAGAG  -0.314
4. CCTCTCAG  -0.314
5. CCCAATAG  -0.29
6. CCAATCAG  -0.287
7. AGAATGCT  -0.287
8. CTGTTAAG  -0.284
9. AGTGACAA  -0.273
10. GACTTAAC  -0.252
11. TGATCGCA  -0.247
12. ACGTGTGA  -0.244
13. AACTATTG  -0.243
14. AGCAAGCA  -0.241
15. TCACGACA  -0.241
16. CTGGCCCA  -0.24
17. GATAGACA  -0.23
18. CTCAATGA  -0.224
19. ATGTACTA  -0.223
20. AAATGTTG  -0.222
21. CCTCACGA  -0.218
22. ACAACAAC  -0.214
23. CCAGCCAC  -0.212
24. CCTGTTAA  -0.209
25. ACTTTAGG  -0.205
26. CCTCTCTC  -0.202
27. AGGAGGCC  -0.201
28. CATCCAAA  -0.2
29. AAGAGAGG  -0.199
30. AGGTGACT  -0.198
31. ATCTCACA  -0.197
32. ATTATTGA  -0.189
33. GACGCTGA  -0.187
34. TCACGTAA  -0.184
35. CATAATCA  -0.184
36. TCGTGCAA  -0.179
37. ACGCTGTG  -0.178
38. ACAGAAAC  -0.168
39. ATTGGCAA  -0.164
40. CACCGCTA  -0.163
41. GAGGGTGC  -0.16
42. GCTGGGCC  -0.159
43. CTAGAAAC  -0.159
44. GCTTGACA  -0.158
45. AGTGTCTG  -0.158
46. AATGCCCT  -0.158
47. ATCACGCA  -0.157
48. AGGGGGCC  -0.157
49. AGGAGTGC  -0.155
50. ATAGAACA  -0.154
51. AGTGGCAG  -0.149
52. CCCAAAGC  -0.147
53. AGACGTTG  -0.146
54. CTCGTACA  -0.14
55. AAGTATGG  -0.133
56. TAGGACCA  -0.132
57. ATTAGTAC  -0.131
58. ATCCTGTG  -0.13
59. CAGGTAAC  -0.127
60. ACTCAAAT  -0.126
61. CGTGCGAC  -0.126
62. TAGTTTGA  -0.121
63. ATTGTTAA  -0.12
64. AGATGAGG  -0.113
65. AATCAAGC  -0.103
66. ACTGATGC  -0.101
67. AGCAAAGC  -0.101
68. ACGGCCAT  -0.0987
69. AAGCCATT  -0.0982
70. AAGAAAGA  -0.0976
71. AACTGTGT  -0.0951
72. AGAGTGTA  -0.094
73. ACTAAGGC  -0.0898
74. GAGTGCGC  -0.082
75. CTGGTCGC  -0.0775
76. ATCTGACA  -0.0757
77. CCATGTAG  -0.0753
78. CCACATTC  -0.0745
79. AAGTTGAT  -0.0732
80. ACCTTTAG  -0.0713
81. CTTTGCAA  -0.0701
82. CATTAGCA  -0.0663
83. GGCGCTAA  -0.0634
84. AAAGCGCT  -0.0584
85. ATAATATA  -0.0573
86. AGTAACCC  -0.057
87. AAATTCCA  -0.0536
88. AGTAGGCA  -0.0532
89. AGGGTTGC  -0.0529
90. TAGAGGAA  -0.0516
91. GAAACCTC  -0.0492
92. CACAGGAC  -0.048
93. CAACTTAC  -0.0406
94. AAAGGTCT  -0.0403
95. GGTTCTCA  -0.0396
96. CCCTCAAC  -0.0392
97. ATCACGTG  -0.0391
98. ATAGCTTC  -0.039
99. GCCCCCGC  -0.0333
100. CACTCGCG  -0.0299
101. TACATGGA  -0.0258
102. ATGAAACG  -0.0253
103. TTACGAAA  -0.0242
104. CGCATGAC  -0.0198
105. TGCGAAAA  -0.0153
106. GAAAAGTC  -0.011
107. CGCTCCAG  -0.00866
108. CGTCACTA  -0.00656
109. AGACACCC  -0.00588
110. GTCGATTA  -0.00305
111. AGCGTTTC  -0.00279
112. CCCCGTAA  -0.00165
113. ATTATATG  0.00361
114. ACGACTCG  0.00456
115. CCCCGTAG  0.0142
116. CGTATCTA  0.015
117. TCCATGAA  0.0216
118. CTAAGATC  0.0238
119. GGGAGGTA  0.0266
120. TAACATTA  0.0275
121. TGACCTAA  0.0344
122. AATAATTA  0.0396
123. GATACTAC  0.045
124. AGCCGCTA  0.0454
125. GAGCCTAC  0.0484
126. GGTAGGTA  0.0595
127. AGGTGTCG  0.0831
128. CAAGCGCC  0.0861
129. AGTAGTTC  0.0901
130. ACTTATTC  0.093
131. GCAGATCC  0.0981
132. AAGCTTCG  0.101
133. GAATATAA  0.105
134. GCACGGCA  0.109
135. GGTTACCA  0.112
136. CATCAGGA  0.114
137. GACTCCGC  0.116
138. ACCCGTTG  0.118
139. CGATATCG  0.121
140. ATAATTCC  0.123
141. TATTCACA  0.129
142. GTCGGGCA  0.13
143. AGCGGCAG  0.131
144. CCTCTCCG  0.131
145. GCCCGGCC  0.136
146. CCAATATC  0.137
147. ATATGATA  0.149
148. ATGGGCGG  0.15
149. CCGTGTTA  0.167
150. AATTAATA  0.171
151. ACCTACCC  0.181
152. CGAGCAAC  0.183
153. AGCTCTCG  0.187
154. GTAGCGGA  0.216
155. ACCCGGTC  0.236
156. CCGGCTTC  0.237
157. CGGCCAAA  0.25
158. AACCGGTG  0.256
159. GTCCGGGA  0.266
160. CCAGTCGG  0.279
161. GCGTCCGA  0.282
162. ACGGTCGG  0.294
163. CGGTAATA  0.313
164. ACGCGGAT  0.315
165. CTTTCCGC  0.324
166. CACTTCGG  0.358
167. CGGGAATC  0.367
168. ATTTCCCG  0.371
169. CGTCGGGA  0.383
170. GGTGCCGA  0.402
171. ACCGGAAC  0.419
172. CTCGGGTC  0.434
